Test results as given in the supplement of paper PMC6531468.
The other results are listed elsewhere or left out. Read counts after selection give these values, which scatter widely. Each score is taken over the longer molecules that contain the sequence shown.

Tests used:
Experiment in all cases: 6-mer SELEX enrichment z-score vs GST control; IMP3 is the RNA-binding protein IGF2BP3; higher = more enriched by binding
IMP3 KH1-4 = settings: construct: KH1-4 (164-579); SELEX round: R4
Protocol: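 SELEX-seq with GST-tagged IMP3 KH1-4 (Pro164-Lys579) and an N40 RNA pool, round 4. 6-mer z-score of sequence-tag enrichment normalised to the corresponding GST SELEX round; RNA k-mers written as DNA (T for U).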

IMP3 RRM1-2 = settings: construct: RRM1-2 (1-163); SELEX round: R2
Chain of IMP3 RRM1-2 (chain, as listed by the source): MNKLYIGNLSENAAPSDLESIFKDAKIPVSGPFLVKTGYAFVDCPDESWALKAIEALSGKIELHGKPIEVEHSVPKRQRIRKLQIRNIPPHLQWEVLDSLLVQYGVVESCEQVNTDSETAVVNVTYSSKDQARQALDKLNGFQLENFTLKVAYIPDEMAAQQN
Protocol: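 SELEX-seq with GST-tagged IMP3 RRM1-2 (Met1-Asn163) and an N40 RNA pool, round 2. 6-mer enrichment z-score normalised to GST SELEX. RNA written as DNA (T = U).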

IMP3 full-length = IMP3 full-length (UniProt O00425); settings: construct: FL IMP3 (1-579); SELEX round: R4
Chain of UniProt O00425 (O00425 whole entry): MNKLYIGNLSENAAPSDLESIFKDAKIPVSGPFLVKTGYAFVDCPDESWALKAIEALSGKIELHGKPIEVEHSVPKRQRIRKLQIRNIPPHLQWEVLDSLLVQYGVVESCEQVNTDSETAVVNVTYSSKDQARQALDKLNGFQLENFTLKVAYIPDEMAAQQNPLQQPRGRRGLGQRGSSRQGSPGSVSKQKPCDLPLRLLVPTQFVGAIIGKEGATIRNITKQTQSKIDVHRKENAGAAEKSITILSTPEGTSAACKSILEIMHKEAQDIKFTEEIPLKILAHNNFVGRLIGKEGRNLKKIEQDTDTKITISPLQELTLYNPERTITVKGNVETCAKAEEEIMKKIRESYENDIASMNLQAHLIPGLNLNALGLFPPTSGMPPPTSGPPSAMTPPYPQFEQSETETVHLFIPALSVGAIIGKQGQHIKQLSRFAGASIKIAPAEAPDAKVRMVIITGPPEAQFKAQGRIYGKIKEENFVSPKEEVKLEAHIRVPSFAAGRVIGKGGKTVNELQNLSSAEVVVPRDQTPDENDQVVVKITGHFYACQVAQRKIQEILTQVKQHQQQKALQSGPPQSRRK
Protocol: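 SELEX-seq with GST-tagged full-length IMP3 and an N40 RNA pool, round 4. Each 6-mer is scored as an enrichment z-score of sequence tags containing it, normalised to the matching GST SELEX round. RNA written as DNA (T = U).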

IMP3 KH1-2 = settings: construct: KH1-2 (164-376); SELEX round: R4
Chain of IMP3 KH1-2 (chain, as listed by the source): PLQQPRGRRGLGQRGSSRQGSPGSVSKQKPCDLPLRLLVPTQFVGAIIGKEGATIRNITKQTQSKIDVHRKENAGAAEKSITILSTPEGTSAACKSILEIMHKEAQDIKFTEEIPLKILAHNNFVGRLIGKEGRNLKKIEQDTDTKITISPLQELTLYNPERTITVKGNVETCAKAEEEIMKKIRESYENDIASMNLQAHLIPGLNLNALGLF
Protocol: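 SELEX-seq with GST-tagged IMP3 KH1-2 (Pro164-Phe376) and an N40 RNA pool, round 4 (stringent 300/600 mM KCl washes). 6-mer z-score of sequence-tag enrichment normalised to the corresponding GST SELEX round; RNA k-mers written as DNA (T for U).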

IMP3 KH3-4 = settings: construct: KH3-4 (377-579); SELEX round: R4
Chain of IMP3 KH3-4 (chain, as listed by the source): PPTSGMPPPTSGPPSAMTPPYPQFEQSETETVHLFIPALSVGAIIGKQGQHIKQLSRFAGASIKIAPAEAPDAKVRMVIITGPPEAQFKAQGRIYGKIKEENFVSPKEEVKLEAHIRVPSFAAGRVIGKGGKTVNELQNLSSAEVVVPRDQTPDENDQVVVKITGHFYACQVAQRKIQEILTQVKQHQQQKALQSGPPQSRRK
Protocol: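 SELEX-seq with GST-tagged IMP3 KH3-4 (Pro377-Lys579) and an N40 RNA pool, round 4. 6-mer z-score of sequence-tag enrichment normalised to the corresponding GST SELEX round; RNA k-mers written as DNA (T for U).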

Chain of IMP3 KH1-4 (chain, as listed by the source): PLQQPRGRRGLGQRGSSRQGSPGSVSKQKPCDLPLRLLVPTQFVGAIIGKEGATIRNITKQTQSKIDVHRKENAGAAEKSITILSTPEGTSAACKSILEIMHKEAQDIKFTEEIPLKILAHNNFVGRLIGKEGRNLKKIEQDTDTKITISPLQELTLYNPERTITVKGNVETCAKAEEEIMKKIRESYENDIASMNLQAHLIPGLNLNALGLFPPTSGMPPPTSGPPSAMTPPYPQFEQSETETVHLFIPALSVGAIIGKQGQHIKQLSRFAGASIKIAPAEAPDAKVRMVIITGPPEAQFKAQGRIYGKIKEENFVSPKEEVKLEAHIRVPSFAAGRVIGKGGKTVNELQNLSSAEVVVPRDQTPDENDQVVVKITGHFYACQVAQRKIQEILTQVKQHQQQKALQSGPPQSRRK

Sequence	6-mer SELEX enrichment z-score (IMP3 KH1-4)	6-mer SELEX enrichment z-score (IMP3 RRM1-2)	6-mer SELEX enrichment z-score (IMP3 full-length)	6-mer SELEX enrichment z-score (IMP3 KH1-2)	6-mer SELEX enrichment z-score (IMP3 KH3-4)
CTGAAT	0.334	-0.588	-0.474	0.099	0.343
CTGGCG	-0.456	0.234	0.175	-0.303	-0.315
ATTTGA	0.733	-0.266	-0.232	0.454	1.24
ACGAGA	-1.37	-1.36	-1.08	-1.3	-1.11
AAGCAC	-0.104	0.533	0.264	-0.329	-0.344
GCGTGC	-0.725	0.24	0.124	-0.615	-0.564
ACCATA	0.924	0.814	0.536	1.07	0.61
ACACCT	-0.705	-0.029	-0.617	-0.661	-1.15
TTGTGG	0.297	0.321	0.034	0.194	0.444
CCGACG	-2.21	-0.979	-1.07	-1.93	-2.14
TCTCGA	-0.761	0.482	-0.074	-0.58	-0.503
AATCAG	0.412	1.33	1.15	0.283	0.434
GGTATT	-0.213	0.425	-0.004	-0.104	0.065
ACAAAT	1.6	0.151	0.576	1.72	2.04
AGTGAA	0.026	-0.844	-0.681	-0.206	0.16
TCAGGA	0.639	0.542	0.812	0.572	0.566
ACCACA	0.118	2.44	0.493	0.473	-0.773
TTTCAG	0.374	0.547	0.499	0.42	0.459
CTAATG	0.127	-0.264	-0.494	-0.007	0.242
AGGTGC	-0.317	0.181	0	-0.262	-0.206
ACATGG	1.29	0.836	1.28	0.889	1.16
TAGGTC	0.154	0.341	0.354	0.2	0.337
CCGGAA	-0.479	-1.31	-0.657	-0.461	-0.56
TGCGCG	-0.057	0.127	0.133	0.024	0.085

Sequence	6-mer SELEX enrichment z-score (IMP3 KH1-4)	6-mer SELEX enrichment z-score (IMP3 RRM1-2)	6-mer SELEX enrichment z-score (IMP3 full-length)	6-mer SELEX enrichment z-score (IMP3 KH1-2)	6-mer SELEX enrichment z-score (IMP3 KH3-4)
TCAACA	0.535	2.74	2.2	0.755	0.167
TGGAGT	0.12	0.101	0.007	0.086	0.248
TATGTT	0.495	0.279	0.038	0.356	0.632
AATCTA	0.337	-0.232	-0.365	0.166	0.389
TCTACA	0.753	0.76	0.462	0.726	0.38
GATTAC	0.542	-0.408	-0.237	0.469	0.689
GGAAAA	0.286	-1.96	-1.14	0.119	0.973
TGGATC	-0.16	0.212	-0.086	-0.252	-0.112
TAAGTC	0.355	-0.013	0.123	0.15	0.35
CGTGCC	-1.05	-0.201	-0.267	-0.919	-1.17
TAGCTA	-0.269	0.02	-0.298	-0.204	-0.061
AGGAAT	0.772	-0.497	-0.235	0.479	1.05
GAACGG	0.059	-1.03	0.126	-0.125	0.131
ATAATC	1.14	0.23	0.458	1.16	1.29
TACGAG	-1.59	-0.415	-0.679	-1.49	-1.29
CTTTTT	0.823	0.386	0.223	0.846	1.06
CCGTGC	-0.783	-0.15	-0.18	-0.727	-1.04
GGATTA	0.69	-0.204	0.012	0.496	1.06
GGAATT	0.514	-0.263	-0.161	0.367	0.769
TTGGCC	0.06	0.072	0.135	-0.013	-0.092
TGGTCA	0.275	0.318	0.326	0.117	0.164
ATAGCA	1.15	0.383	0.886	1.09	1.03
CCCCTA	-0.296	-0.64	-0.749	-0.199	-0.812
AGTTAC	0.286	0.209	-0.023	0.041	-0.017

Sequence	6-mer SELEX enrichment z-score (IMP3 KH1-4)	6-mer SELEX enrichment z-score (IMP3 RRM1-2)	6-mer SELEX enrichment z-score (IMP3 full-length)	6-mer SELEX enrichment z-score (IMP3 KH1-2)	6-mer SELEX enrichment z-score (IMP3 KH3-4)
TAGGCA	0.848	0.692	1.06	0.527	0.896
AGTTCA	0.262	0.653	0.603	0.295	0.266
GCCTCG	-0.984	0.032	-0.078	-0.801	-0.796
ATTACA	2.27	0.979	1.27	2.71	2.77
ACGAAC	-1.3	-1.08	-1.09	-1.08	-1.31
CCGTAT	-0.091	-0.202	-0.126	-0.017	-0.146
TAGCTG	-0.092	0.098	-0.132	-0.051	-0.004
GCACGA	0.225	-0.017	0.858	0.023	0.028
TATCTT	0.279	0.453	0.136	0.296	0.366
AGCTCG	-0.622	0.208	0.173	-0.545	-0.462
CGATCA	-0.271	1.3	0.954	-0.225	-0.433
AGGCTA	0.188	0.294	0.338	0.193	0.642
AGCTAG	-1.01	0.009	-0.599	-0.894	-0.793
TCCAAA	-1.39	-0.892	-1.45	-1.34	-1.62
GCTATG	0.067	0.047	-0.063	0.104	0.315
GCCAAG	-0.772	-0.526	-0.348	-0.715	-0.762
ACATCC	-0.011	0.68	0.653	0.024	-0.94
CTCGGA	-0.83	-0.093	-0.258	-0.755	-0.667
CTCGGT	-0.417	0.441	0.061	-0.332	-0.234
TCCAAG	-0.926	-0.444	-0.779	-0.934	-0.935
CCGTAC	-0.753	-0.407	-0.155	-0.61	-1.04
CTTGTG	-0.394	0.163	-0.308	-0.376	-0.266
CCAAGG	-0.884	-0.543	-0.568	-0.854	-1.01
GCCGCA	0.786	0.333	1.27	0.904	0.263

Sequence	6-mer SELEX enrichment z-score (IMP3 KH1-4)	6-mer SELEX enrichment z-score (IMP3 RRM1-2)	6-mer SELEX enrichment z-score (IMP3 full-length)	6-mer SELEX enrichment z-score (IMP3 KH1-2)	6-mer SELEX enrichment z-score (IMP3 KH3-4)
TGGGCG	-1.13	0.222	-0.082	-0.925	-0.691
TCAGGG	0.089	0.569	0.544	0.226	0.193
TATTGT	0.768	0.332	0.138	0.525	0.898
ACCACC	-0.605	-0.084	-0.839	-0.516	-1.67
CCCCAC	-0.412	-0.531	-0.593	0.01	-1.5
TGTATT	0.401	0.24	0.011	0.393	0.598
ACAATT	1.63	0.333	0.687	1.61	1.95
ATCGTA	-0.405	-0.079	-0.286	-0.491	-0.354
AAAACC	-2.97	-2.63	-3.73	-2.39	-2.93
GTGCAG	0.5	0.142	0.436	0.333	0.247
GTGGAA	0.125	-0.436	-0.286	0.009	0.154
GGTTAC	-0.205	0.263	-0.054	-0.246	-0.179
GTTGGG	0.051	0.39	0.297	0.242	0.305
CCTCGT	-0.929	0.034	-0.468	-0.801	-0.83
GCGTTA	-1.1	0.205	-0.435	-0.95	-0.802
TCAAGA	-0.65	0.148	-0.176	-0.632	-0.467
CGTGCG	-1.36	0.093	-0.476	-1.15	-1.1
TGAACT	0.283	-0.789	-0.589	0.109	0.311
AGTCCG	0.338	-0.06	0.424	0.13	-0.232
GTTAAA	-0.319	-0.804	-0.743	-0.411	0.023
CTCATC	0.191	1.19	0.833	0.242	-0.224
CACTTT	1.34	0.588	0.559	1.32	0.931
TGACGC	-0.565	-0.29	-0.397	-0.546	-0.646
GTCTTA	-0.207	0.309	-0.027	-0.186	-0.016

Sequence	6-mer SELEX enrichment z-score (IMP3 KH1-4)	6-mer SELEX enrichment z-score (IMP3 RRM1-2)	6-mer SELEX enrichment z-score (IMP3 full-length)	6-mer SELEX enrichment z-score (IMP3 KH1-2)	6-mer SELEX enrichment z-score (IMP3 KH3-4)
GACGAA	-1.01	-1.82	-1.28	-0.999	-0.792
TCCGAC	-1.22	-0.521	-0.753	-1.03	-1.41
GTGAAC	-0.111	-0.672	-0.484	-0.372	-0.282
TAACCC	-1.34	-1.15	-1.71	-1.38	-1.81
TGTTTC	-0.001	0.351	0.054	0.057	0.051
TCCCTC	0.001	0.166	-0.307	-0.006	-0.507
CACTGG	0.16	0.609	0.736	0.093	-0.19
TTGGTC	-0.041	0.525	0.279	0.025	0.073
CCGGCC	0.493	-0.465	0.67	0.422	-0.07
AGTATG	0.376	-0.111	-0.058	0.191	0.529
CATTCG	0.449	0.666	0.877	0.236	0.163
TAAGGG	0.308	0.005	-0.036	0.339	0.662
TAGACC	-0.705	-0.773	-0.984	-0.659	-0.786
ATACGG	1.16	-0.213	0.631	0.669	1.09
GGTGGC	0.715	0.334	0.764	0.705	0.689
CCGCCG	-0.151	-0.612	0.277	0.327	-0.702
CCGAGG	-0.88	-0.704	-0.104	-0.694	-0.864
GCTAGT	-0.507	0.226	-0.29	-0.474	-0.341
CTCACC	-0.737	0.199	-0.589	-0.621	-1.29
TACTAA	0.803	0.17	-0.32	0.855	1.04
CCGCTA	0.168	-0.177	-0.113	0.439	-0.027
ACGCGC	-0.826	-0.159	-0.014	-0.789	-0.98
GCATCA	1.7	1.04	3.1	0.947	0.728
TGAAGG	0.462	-0.384	-0.02	0.3	0.712
